In article PMC4336329 (PLoS ONE, 2015):
Screen size: about 310,000 compounds; about 2,200 (0.71%) showed an effect of 50% or more. Effects have a minus sign here. The list shows a part of the results.

The compounds below were run against human ether-à-go-go-related gene (hERG) potassium channel (human, UniProt Q12809) (assay: primary screen, population patch clamp on CHO cells stably expressing hERG).
human ether-à-go-go-related gene (hERG) potassium channel, sequence (Q12809 whole entry, looked up): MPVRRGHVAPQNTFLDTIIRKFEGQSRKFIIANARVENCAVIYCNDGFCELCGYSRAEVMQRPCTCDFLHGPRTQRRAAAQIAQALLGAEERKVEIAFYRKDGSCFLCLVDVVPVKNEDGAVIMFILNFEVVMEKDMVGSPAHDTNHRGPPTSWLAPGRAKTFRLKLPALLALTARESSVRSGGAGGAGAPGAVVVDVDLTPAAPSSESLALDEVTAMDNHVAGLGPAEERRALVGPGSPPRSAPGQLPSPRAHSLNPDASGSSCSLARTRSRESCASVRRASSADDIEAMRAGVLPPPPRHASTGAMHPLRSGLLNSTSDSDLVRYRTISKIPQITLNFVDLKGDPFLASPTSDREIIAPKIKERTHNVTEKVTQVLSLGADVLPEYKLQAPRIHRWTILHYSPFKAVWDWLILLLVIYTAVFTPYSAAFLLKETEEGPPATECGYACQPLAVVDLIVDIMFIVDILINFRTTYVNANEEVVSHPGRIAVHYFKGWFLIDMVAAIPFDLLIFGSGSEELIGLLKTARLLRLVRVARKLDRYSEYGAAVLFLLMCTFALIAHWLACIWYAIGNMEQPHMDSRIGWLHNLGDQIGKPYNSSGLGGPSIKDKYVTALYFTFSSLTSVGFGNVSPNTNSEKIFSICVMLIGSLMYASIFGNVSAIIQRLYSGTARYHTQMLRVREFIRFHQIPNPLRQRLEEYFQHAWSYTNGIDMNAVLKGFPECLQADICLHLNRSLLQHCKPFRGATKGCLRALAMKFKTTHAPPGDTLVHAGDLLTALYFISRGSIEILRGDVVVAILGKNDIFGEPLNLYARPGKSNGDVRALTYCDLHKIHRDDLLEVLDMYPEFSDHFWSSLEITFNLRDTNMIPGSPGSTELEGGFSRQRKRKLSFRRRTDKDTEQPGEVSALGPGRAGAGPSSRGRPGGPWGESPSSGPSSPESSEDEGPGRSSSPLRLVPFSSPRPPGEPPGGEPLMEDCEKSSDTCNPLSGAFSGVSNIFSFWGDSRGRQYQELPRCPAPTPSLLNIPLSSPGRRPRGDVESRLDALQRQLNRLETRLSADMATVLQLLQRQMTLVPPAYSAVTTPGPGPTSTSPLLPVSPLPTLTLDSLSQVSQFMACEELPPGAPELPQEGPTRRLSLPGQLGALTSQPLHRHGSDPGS

SMILES	hERG current change (%, negative = inhibition) at 1uM
CCOCc1nnc(NC(=O)C2c3ccccc3Oc3ccccc32)s1	19.5%
CCOCC(=O)Nc1c(C(=O)Nc2ccc3c(c2)OCCO3)oc2ccccc12	7.78%
COc1ccc(N2CCN(C(=O)CCCC3=NS(=O)(=O)c4ccccc4N3)CC2)cc1	4.16%
CSC1=NCCN1C(=O)C(C)Oc1ccccc1 (centres unmarked)	19.4%
CCC(C)NC(=O)CSC1=Nc2ccccc2C2=NC(c3ccccc3)C(=O)N12 (centres unmarked)	-17.7%
COC(=O)c1c(-c2c(Cl)cccc2Cl)noc1NC(=O)N(C)C	23%
Cc1sc2nc(CN(Cc3ccccc3)C(=O)NC3CCCCC3)[nH]c(=O)c2c1C	6.82%
C=CCSc1nc2c(c(C3CC=CCC3)c1C#N)CCC2 (centres unmarked)	14.5%
Cc1csc(NC(=O)C2CCN(S(=O)(=O)c3cccs3)CC2)n1	-2.21%
COc1ccc(N(CC(=O)N2CCN(c3ccccc3F)CC2)S(=O)(=O)c2c(C)noc2C)cc1	15.3%
CC(C)N(Cc1ccccc1)C(=O)COc1ccccc1	7.8%
CCOC(=O)c1cnc(-n2[nH]c(C)c(Cc3ccccc3)c2=O)[nH]c1=O	5.51%
CCCNC(=O)Nc1cc(C)on1	15.3%
CCC(=O)Nc1nnc(Cc2ccccc2)s1	5.92%
COc1ccccc1-c1cc(-c2ccccc2)nc(SC(C(N)=O)c2ccccc2)c1C#N (centres unmarked)	17.2%
CCCC(=O)Nc1ccc(C(=O)O)cc1NC(=O)CCC	10.8%
COc1ccccc1OCCNC(=O)C(=O)c1c[nH]c2ccccc12	2.99%
COC(=O)C(CC(=O)c1ccc(C)cc1)n1cccn1 (centres unmarked)	9.45%
C=CCN1C(=O)NC2(O)C(=O)c3ccccc3C12O (centres unmarked)	7.82%
Cc1nnc(Sc2c(-c3ccccc3)c3ccc(Cl)cc3[nH]c2=O)s1	6.04%
COc1ccc2nc(C)cc(SCC(=O)Nc3c(C)cccc3C)c2c1	11.4%
C#CCOc1ccccc1CNc1ccccc1	12.5%
COc1ccc(-c2csc(NC(=O)CCCc3cccs3)n2)cc1	8.28%

SMILES	hERG current change (%, negative = inhibition) at 1uM
Cc1ccc(C)c(N2CCN(C(=O)c3cc4sccc4n3C)CC2)c1	8.32%
Cc1ccc(-n2c(-c3ccco3)nc3nc4ccccc4nc32)cc1F	1.67%
O=c1[nH]c(CSc2ncnc3sccc23)nc2ccccc12	11%
COc1cn(-c2ccccc2)nc1C(=O)NCc1ccccc1	9.39%
Fc1ccc(C(c2nnnn2Cc2cccs2)N2CCN(c3ccccc3)CC2)cc1 (centres unmarked)	3.79%
Cc1ccc2c(c1)N(CC(=O)N1CCCCC1)C(=O)CO2	3.2%
CC(C)c1cccc(C(C)C)c1NC(=O)COc1nncc2ccccc12	12.6%
Cc1cc(=O)[nH]c(SCC(=O)OCc2ccccc2)c1C#N	10.9%
CCC(C)[C@H]1COCCS(=O)(=O)N1Cc1ccc(C)cc1 (some centres unmarked)	-0.569%
Cc1ccc(CNC(=O)c2cc(-c3ccccc3)nn2CC2CC(c3cccc([N+](=O)[O-])c3)=NO2)cc1 (centres unmarked)	24.3%
COC(=O)c1c[nH]n2c(=O)c(C(C)C)c(C)nc12	7.4%
CCN1CCN(Cc2c3ccccc3cc3ccccc23)CC1	13.1%
Cc1cccc(-n2ccc(=O)c(C(=O)Nc3ccc(S(=O)(=O)N4CCOCC4)cc3)n2)c1	10.2%
COc1cc(/C=N/N=C2/NC(=O)C(CC(=O)O)S2)ccc1OCc1cccc(Cl)c1 (centres unmarked)	11.6%
O=C(Cn1nc(-c2ccccc2)ccc1=O)Nc1ccc(-n2cnnn2)cc1	9.23%
CC(=O)c1ccc(S(=O)(=O)N2CCC3(CC2)CC(=O)c2ccccc2O3)cc1	-11%
COCc1[nH][nH]c(=O)c1C=Nc1ccc(OC(F)(F)F)cc1	-16.1%
CCOC(=O)c1ccccc1NC(=O)c1ccc2c(SCC(=O)O)c3c(nc2c1)CCCC3	16.1%
COc1ccc(CCC(=O)N2CC(C)OC(C)C2)cc1 (centres unmarked)	0.126%
CC(C)COc1ncnc2c1sc1nc3c(cc12)COC(C)(C)C3	6.63%
COC(=O)c1ccccc1NC(=O)Cn1cnc2c(cnn2-c2ccc(C)c(C)c2)c1=O	14.7%
COc1ccc(CN(C)C(=O)c2ccc(NS(=O)(=O)c3ccc(F)cc3)cc2)c(OC)c1OC	-16.5%
COc1ccc(N2CCN(C(=O)Cn3cnc4c(cnn4-c4ccc(C)cc4)c3=O)CC2)cc1	9.67%

SMILES	hERG current change (%, negative = inhibition) at 1uM
CC1CCc2c(sc3ncn(CCO)c(=O)c23)C1 (centres unmarked)	14.2%
O=C(CSc1nnc(-c2cccnc2)s1)Nc1ccc(C(=O)O)cc1	13.5%
CCOC(=O)c1[nH]c2ccccc2c1N=CN(C)C	-2.42%
CCOc1ccc(N2C(=O)CC(Cc3ccc(Br)cc3)C2=O)cc1 (centres unmarked)	12.6%
O=C(COC(=O)c1cc(Cl)ccc1[N+](=O)[O-])Nc1cccc2ccccc12	3.5%
COc1ccc(-c2csc(C)n2)cc1Br	9.31%
CC1=C(C(N)=O)C(c2ccccc2F)NC(=O)N1 (centres unmarked)	16%
COc1ccc(C2CC(c3ccc(OC)c(OC)c3)=NN2C(=O)c2ccccc2)cc1 (centres unmarked)	12.8%
COc1ccc(C(CNC(=O)c2cccc(S(=O)(=O)Nc3ccc(C)cc3)c2)N2CCCCC2)cc1 (centres unmarked)	12%
COc1ccc(NC(=O)c2cc(C)cc(C)c2)cc1[N+](=O)[O-]	1.97%
COc1nc(C)ccc1-c1noc(-c2cccs2)n1	11.1%
CCOc1ccc(Nc2ccc([N+](=O)[O-])c3nonc23)cc1	-3.63%
Cc1ccc(NC(=O)CSc2nsc(SCC(=O)Nc3ccc(C)cc3C)c2C#N)c(C)c1	15.9%
O=C(NNS(=O)(=O)c1ccc(Br)cc1)C1CCCCC1	13.1%
COc1ccc(NC(=O)CCc2nc3ccccc3s2)c(OC)c1	9.27%
O=C(NNC(=O)c1cc2ccccc2oc1=O)c1ccccc1[N+](=O)[O-]	16%
Cc1ccc(C)c(S(=O)(=O)N2CCN(C(=O)Cc3c(F)cccc3Cl)CC2)c1	7.09%
O=C(/C=C/c1ccc([N+](=O)[O-])cc1)c1ccco1	5.32%
CCOC(=O)C(C)Oc1ccccc1C1NC(=O)NC(C)=C1C(=O)Nc1ccc(C)c(C)c1 (centres unmarked)	-5.36%
O=C(CC(=O)Nc1cc(Cl)ccc1Cl)Nc1cc(Cl)ccc1Cl	16.5%
Cc1cc(F)ccc1NCc1cc2c(cc1[N+](=O)[O-])OCO2.O=C(O)C(=O)O	10.5%
Cc1ccc(NC(=O)COc2ccccc2C(N)=O)cc1S(=O)(=O)N1CCCCCC1	-0.137%
O=C1C2C3C=CC(CC3)C2C(=O)N1c1ccccc1[N+](=O)[O-] (centres unmarked)	14.9%

SMILES	hERG current change (%, negative = inhibition) at 1uM
CC1CC(C)CN(C(=O)c2ccc3c(c2NCCO)C(=O)c2ccccc2C3=O)C1 (centres unmarked)	4%
Cc1ccc(-c2nnn(CC(=O)O)n2)cc1	-0.39%
COC(=O)c1ccc(Cl)c(NC(=O)CN(c2ccccc2)S(=O)(=O)c2ccc(OC)cc2)c1	-0.947%
Cc1ccc2cc(/C=N/NC(=O)[C@H]3C[C@@H]3c3ccccc3)c(Cl)nc2c1	10.9%
CCOC(=O)c1c(NC(=O)C2C3C=CC(C3)C2C(=O)O)sc2c1CC(C)(C)OC2 (centres unmarked)	2.99%
CCCCc1ccc(NC(=O)C2CCCC2)cc1	15.3%
CNc1nc(N)c(C(=O)C23CC4CC(CC(C4)C2)C3)s1	9.89%
Cc1ccc(-n2nc(C)cc2NC(=O)c2ccc(C)s2)cc1	15.2%
CCOc1ccc(C(=O)CCCC(=O)c2ccc(OCC)cc2)cc1	8.99%
CCCn1cnc2scc(-c3ccc(C)cc3)c2c1=O	11%
Cc1ccc(NC(=O)C(C)OC(=O)COc2cccc(C(F)(F)F)c2)cc1 (centres unmarked)	16.7%
COc1cc(NC(=O)c2n[nH]c(=O)c3ccccc23)cc(OC)c1	10.5%
CCC(=O)C(CCN1CCOCC1)(c1ccccc1)c1ccccc1	11.6%
Cc1ccc(N2CN=C3SCC(=O)N3C2)cc1C	3.3%
Cc1ccc2nc(-c3ccccc3N)[nH]c2c1	9.7%
COc1ccc(-c2cc(C(F)(F)F)n3nc(C(=O)N4CCN(C(=O)c5ccco5)CC4)cc3n2)cc1	3%
Cc1ccc(CSc2ccc3nnc(-c4cccnc4)n3n2)cc1	-70.6%
O=C(N/N=C/c1ccccc1C(=O)O)c1ccccc1Br	4.13%
Cc1ccc(S(=O)(=O)N2CCN(C(=O)CN3CCCCC3)C2C(C)C)cc1 (centres unmarked)	-12.7%
COc1cc(CC(=O)Nc2ccc3nc(SC)sc3c2)cc(OC)c1OC	10.6%
